Data taken from the RNAGym collection of RNA variant scans (doi:10.1073/pnas.2313332121).
This sample is rich in variants without activity.

B1: TPR 5TU (parent)
chain: GGAUCUUCUCGAUCUAACAAAAAAGACAAAUCUGCCACAAAGCUUGAGAGCAUCUUCGGAUGCAGAGGCGGCAGCCUUCGGUGGCGCGAUAGCGCCAACGUUCUCAACUAUGACACGCAAAACGCGUGCUCCGUUGAAUGGAGUUUAUCAUG

Variants of: B1
Assay: polymerase ribozyme fitness, log enrichment relative to wild type (log ratio); higher = more active; in vitro selection for triplet polymerase activity
Method in brief: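 To select mutant libraries of each subunit of a heterodimeric triplet polymerase ribozyme, built by PCR and transcribed, each was annealed with a biotinylated primer, partner subunit and triplets, then incubated frozen at −7 °C. Extended constructs were gel-excised, captured on streptavidin beads and amplified by RT-PCR, in one round carried out in triplicate. Illumina sequencing of input and output libraries kept genotypes with ≥10 input reads and ≥1 read per output. Fitness is the base-2 logarithm of genotype enrichment relative to wild-type enrichment, from inverse-variance-weighted replicate averages.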

**Q.** With GGAUCUUCUCGAUCUAACAAAAAAGACAAAUCUGCCACAAAGCUUGAGACCAUCUUGGGAUGCAGAGGCGGCAGCCUUCAGUGGCGCGAUAGCGCCAACGUUCUCAACUAUGACAUGCAAAACGCGUGCUCCGUUGAAUGGAGUUUAUCAUG [G50C C57G G80A C116U] as the variant, how does the “polymerase ribozyme fitness (log ratio)” value read?
**A.** ≤ -4.2

**Q.** For GGAUCUUCUCGAUCUAACAAAAAAGACAAAUCUGCCACAAAGCUUGAGACCAUCUUCGGAUGUAGAGGCGGCAGAUUUCGGUGGCGCGAUAGCGUCAACGUUCUCAACUAUGACACGCAAAACGCGUGCUCCGUUGAAUGGAGUUUAUCAUG [G50C C63U C75A C76U C95U], which “polymerase ribozyme fitness (log ratio)” value is on record?
**A.** ≤ -4.2

**Q.** With GGAUCUUCUCGAUCUAACAAAAAAGACAAAUCUGCCACAAAGCUUGAGACCAUCUUCGGAUGCAGAGGCGGUAGCCUUCGGUAGCGCGAUUGCGCCAACGUUCUCAACUAUGACACGCAAAACUCGUGCUCCGUUGAAUGGAGUUAAUCAUG [G50C C72U G83A A91U G124U U146A] as the variant, how does the “polymerase ribozyme fitness (log ratio)” value read?
**A.** ≤ -4.2

**Q.** Which “polymerase ribozyme fitness (log ratio)” value does the source give for GGAUCUUCUCGAUCUAACAAAAAAGACAAAUCUGCCACAAAGCUUGAGACCAUCUUCGGAUGCAGAGGCGGCAGCCUUCGGUGGCGCGAUAGCGCCAUCGAUCUCAACUAUGACACGCAAAACGCGUGCUCCGUUGAAUGGAGUUUAUCAUG [G50C A98U U101A] here?
**A.** ≤ -4.2

**Q.** Which “polymerase ribozyme fitness (log ratio)” value does the source give for GGAUCUUCUCGAUCUAACAAAAAAGACAAAUCUGCCACAAAGCUUGAGACUAUCUUCGGAUGCAGAGGCGGCAGCCUUCGGUGGCGCGAUAGCGCCAACGUUCUCAACAAUGACACGCAAAACGCGUGCUCCGCUGAAUGGAGUUUAUCAUG [G50C C51U U109A U134C] here?
**A.** ≤ -4.2

**Q.** For GGAUCUUCUCGAUCUAACAAAAAAGACAAAUCUGCCACAAAGCUUGAGACCCUCUUCGGAUGCAGAGGCGGCAGCCUUCGGUGGCGCGAUAGCGCGUACGUUCUCAACUAUGACACGCAAAACGCGUGCUCCGUUGAAUGGAGUUUUUCAUG [G50C A52C C96G A97U A147U], which “polymerase ribozyme fitness (log ratio)” value is on record?
**A.** ≤ -4.2

**Q.** Which “polymerase ribozyme fitness (log ratio)” value does the source give for GGAUCUUCUCGAUCUAACAAAAAAGACAAAUCUGCCACAAAGCUUGAGACCAUCUUCGGGUGCAGAGGCGGCAGCCUUCGGUGGCGCGAUAGCGCCAACGUUCUCAACUAUGACACGCAAAACGCGUGCUCCGUUGAAUGGAGUUUAUCAUG [G50C A60G] here?
**A.** -2.31

**Q.** With GGAUCUUCUCGAUCUAACAAAAAAGACAAAUCUGCCACAAAGCUUGAGACCAUCUUCGGAUGCAGGGGCGGCAGCCUUCGGUGGCGCGAUAGCGCUAACGUUCUCAACUAUGACACGCAAAACGCGUGCUCCGUUGAAUGGAGUUGAUCAUG [G50C A66G C96U U146G] as the variant, how does the “polymerase ribozyme fitness (log ratio)” value read?
**A.** ≤ -4.2

**Q.** With GGAUCUUCUCGAUCUAACAAAAAAGACAAAUCUGCCACAAAGCUUGAGACCGUCUUCGGAUGCAGAGGCGGCAGCCUUCGGUGGCGCGAUAGCGUCAACGUUCUCAACUAUGACACGCAAAACGCGAGCUCCGUUGAAUGGAGUUUAUCAUG [G50C A52G C95U U127A] as the variant, how does the “polymerase ribozyme fitness (log ratio)” value read?
**A.** ≤ -4.2

**Q.** For GGAUCUUCUCGAUCUAACAAAAAAGACAAAUCUGCCACAAAGCUUGAGACCCUCAUCGGAUGCAGAGGCGGCAGCCUUCGGUGGCGCCAUAGCGCCAACGUUCUCAACUAUGACACGCAAAGCGCGUGCUCCGUUGAAUGGAGUUUUUCAUG [G50C A52C U55A G88C A122G A147U], which “polymerase ribozyme fitness (log ratio)” value is on record?
**A.** ≤ -4.2

**Q.** With GGAUCUUCUCGAUCUAACAAAAAAGACAAAUCUGCCACAAAGCUUGAGAACAUCUUCGGAUGCAGAGGCGGCAGCCGUCGGUGGCACGAUAGCGCCAACGUUCUCAACUAUGACACGCAAAACGCGUGCUCCGUUGAAUGGAGUUUAUCAUG [G50A U77G G86A] as the variant, how does the “polymerase ribozyme fitness (log ratio)” value read?
**A.** ≤ -4.2

**Q.** Which “polymerase ribozyme fitness (log ratio)” value does the source give for GGAUCUUCUCGAUCUAACAAAAAAGACAAAUCUGCCACAAAGCUUGAGACCAUUUACGUAUGCAGAGGCGGCAGCCUUCGGUGGCGCGAUAGCGCCAACGUUCUCAACUAUGACACGCAAAACGCGUGCUCCGUUGAAUGGAGUUUAUCAUG [G50C C54U U56A G59U] here?
**A.** -3.48

**Q.** For GGAUCUUCUCGAUCUAACAAAAAAGACAAAUCUGCCACAAAGCUUGAGAACAUCUUCGGAUGCAGAGGCGGCAGCCGUCGGUGGCACGAUAGCGCCAACGUUCUCAUCUAUUACACGCAAAACGCGUGCUCCGUUGAAUGGAGUUUAUCAUG [G50A U77G G86A A107U G112U], which “polymerase ribozyme fitness (log ratio)” value is on record?
**A.** ≤ -4.2

**Q.** For GGAUCUUCUCGAUCUAACAAAAAAGACAAAUCUGCCACAAAGCUUGAGACGAUCUUCGGAUGCAGAGGCGGCAGCCUUCCGUGGCGCGAUAGCGCCAACGUUCUCAACUAUGACACGCAAAACACGUGCUCCGAUGAAUGGAGUAUAUCAUG [G50C C51G G80C G124A U134A U145A], which “polymerase ribozyme fitness (log ratio)” value is on record?
**A.** ≤ -4.2

**Q.** For GGAUCUUCUCGAUCUAACAAAAAAGACAAAUCUGCCACAAAGCUUGAGACCAUCUUCGGAUGCCGAGGCGGCAUCCUUCGGUGGCGCGAUAGGGCCAACGUUCUCAACUAUGACACGCAAAACGCGUGCUCCGUUGAAUGGAGUUUAUCAUG [G50C A64C G74U C93G], which “polymerase ribozyme fitness (log ratio)” value is on record?
**A.** ≤ -4.2

**Q.** With GGAUCUUCUCGAUCUAACAAAAAAGACAAAUCUGCCACAAAGCUUGAGACCAUCUUCGGAUGCAGAGGCGGUAGCCUUCGGUGGCGCGAUGGCGCCAACGUUCUCAACUAUGACACGAAAAACGCGUGCUCCGUUGAAUGGUGUUUAUCAUG [G50C C72U A91G C118A A142U] as the variant, how does the “polymerase ribozyme fitness (log ratio)” value read?
**A.** ≤ -4.2

**Q.** With GGAUCUUCUCGAUCUAACAAAAAAGACAAAUCUGCCACAAAGCUUGAGACCUUCUUCGGAUGCAGAGGCGGCAGCCUUCGAUGGCGCGAUAGCGCCAACGUUCUCAACUAUGACACGCAAAACGCGUGCUCCGUUGAAUGGAGUUUAUCAUG [G50C A52U G81A] as the variant, how does the “polymerase ribozyme fitness (log ratio)” value read?
**A.** ≤ -4.2

**Q.** For GGAUCUUCUCGAUCUAACAAAAAAGACAAAUCUGCCACAAAGCUUGAGACCCUGUUCGGAUGCAGAGGCGGCAGCCUUCGGUGGCGCGAUAGCGCCAACGUUCUCAACUAUGACACGCAAAACGCGUGCUCCGUUGAAUGGAGUUUAUCAUG [G50C A52C C54G], which “polymerase ribozyme fitness (log ratio)” value is on record?
**A.** ≤ -4.2

**Q.** Which “polymerase ribozyme fitness (log ratio)” value does the source give for GGAUCUUCUCGAUCUAACAAAAAAGACAAAUCUGCCACAAAGCUUGAGACCAUUUUCGGAUGCCGAGGCGGCAGCCUUCGGUGGCGCGAUAGCGCCAACGUUCUCAACUAUGACACGCAAAACGCGUGCUCCGUCGAAUGGAGUUUAUCAUG [G50C C54U A64C U135C] here?
**A.** ≤ -4.2
